Reference: ChEMBL document CHEMBL4888484, “Replenishing the malaria drug discovery pipeline: Screening and hit evaluation of the MMV Hit Generation Library 1 (HGL1) against asexual blood stage Plasmodium falciparum ,using a nano luciferase reporter read-out” (2022)
Screen size: about 150,000 compounds; about 540 (0.36%) showed an effect of 50% or more. Some of the results follow.

system: Plasmodium falciparum; experiment: Primary screen in NF54 nanoGlo assay, in single point, at 2uM, 72h; a lower Z score goes with more inhibition; assay type: functional, Erythrocyte; details: timepoint 72 hour

Row | Structure (SMILES) | % Inhibition [%] | Z score
1 | Cc1nc(C(=O)NCC2CCCC23NC(=O)NC3=O)c(C)s1 (stereo not drawn) | 1 | -0.13
2 | CC(C)(C)c1ccc(-c2noc(Cn3c(=O)n(Cc4ccccc4)c(=O)c4sccc43)n2)cc1 | -11 | 1.33
3 | Fc1ccc(Nc2nc3c(s2)CCCC3)cc1 | 34 | -4.37
4 | CNC(=NCc1cccc(COCc2ccccc2)c1)NC | -2 | 0.45
5 | c1cc(-c2nnc(-c3cccc(C4CCOC4)c3)o2)cc(C2CCOC2)c1 (stereo not drawn) | -18 | 2.18
6 | CCCCNC(=O)CN(C)C1C2CCOC2C1(C)C (stereo not drawn) | -8 | 1.01
7 | CS(=O)(=O)N(CCN1CCCCC1)C1CN(C(=O)CC2CCCC2)C1 | -9 | 1.19
8 | Cc1cnc(OC(C)C)c(NC(=O)c2ccsc2C(F)F)c1 | -5 | 0.84
9 | NC(=NCCCC(=O)N1CCc2ccccc2C1)N1CCCCC1 | 0 | 0.04
10 | Cc1cc(C)c2c(c1)[C@@]1(CC(=O)Nc3c1cnn3C(C)C)C(=O)N2 | -4 | 0.41
11 | O=C(Nc1nnc([C@H]2CC(=O)N(c3ccc(OC(F)(F)F)cc3)C2)o1)c1ccccc1 | -2 | 0.33
12 | O=C(c1ncncc1Cl)N1CCCCCCC1 | 35 | -3.94
13 | COc1ccc(CN2CCn3c(n[nH]c3=O)C2)cc1Cn1nc(C)cc1C | -4 | 0.66
14 | CC1(C)C[C@H](NCC2CCCCC2)[C@@]2(CCC(=O)NCc3ccco3)CC[C@](C)(O)C[C@@H]12 | -13 | 1.95
15 | CCc1cccc(NC(=O)N2CC[C@H](N3CCN(C)CC3)[C@H](CCC(=O)O)C2)c1 | -5 | 0.85
16 | CNC(=O)[C@@H]1C[C@@H](NCc2ccc(C(C)C)cc2)CN1C(C)C | 24 | -3.07
17 | CC1=C(CN2CCO[C@H](C(=O)N(C)C)C2)C(C)(C)CCC1 | -22 | 2.35
18 | CCN(CC)CCNc1nnc(-c2nc(C3CC3)no2)c2ccccc12 | -12 | 1.4
19 | Cc1cc(Cl)cc(C(=O)NCC2CCCC2NS(C)(=O)=O)c1 (stereo not drawn) | 3 | -0.35
20 | COc1ccc(OC)c(-c2nc3c([nH]2)c(-c2cccnc2)nn3C)c1 | 18 | -2.29
21 | CCN1CCN(C(=O)c2nc(-c3nn(-c4ccc(C)cc4)c(=O)n(CC)c3=O)no2)CC1 | 7 | -1.23

Row | Structure (SMILES) | % Inhibition [%] | Z score
22 | CCn1cc(S(=O)(=O)NC(=O)c2cccc(Cl)c2C)cn1 | -3 | 0.37
23 | CC(C)CCC(=O)N1CCC[C@H](N(CCN2CCCCC2)S(C)(=O)=O)C1 | -17 | 2.32
24 | Cc1ccc(-c2noc(-c3cn(-c4ccc(C)c(C)c4)c(=O)c4ccccc34)n2)cc1C | -11 | 1.69
25 | Cc1nc(C(C)C)sc1[C@H](C)N(C)Cc1ncc(C2CC2)o1 | -12 | 2.32
26 | Cc1cc(-c2cn3cc(C(=O)N(C)[C@@H](C)CCO)nc3c(=O)n2C)c(C)o1 | 0 | 0.06
27 | CCC(C)NC(=O)C(NC(=O)c1ccc(OC)cc1)C1CCN(C(=O)c2cccc(F)c2)CC1 (stereo not drawn) | -24 | 2.1
28 | CC(=O)N1CC(N[C@@H](C)c2nc(C(F)(F)F)cs2)C1 | 9 | -1.55
29 | CC(C)(CN1CCOCC1)Nc1ncc(C#N)c(N)n1 | -4 | 0.53
30 | Cc1nc(C(=O)NCCc2ccccc2)co1 | 2 | -0.2
31 | CCN(CC)C(=O)Cn1cc(-c2nc(CN3CCOCC3)no2)nn1 | -19 | 2.26
32 | Cn1nc(CN(C2CCCC2)S(C)(=O)=O)c2c1CCC2 | -12 | 1.98
33 | O=C(c1cscn1)N1CCOc2ccccc2[C@@H]1CO | -10 | 1.33
34 | CC1=C[C@@H](CN2CCOCC2)[C@H](C(C)C)C[C@H]1Cc1nnc(-c2ccc(N(C)C)cc2)o1 | -1 | 0.09
35 | O=C(O)C1=C[C@@H](c2ccc(Cl)cc2)n2ncc(C(=O)Nc3ccc(F)cc3)c2N1 | -4 | 0.65
36 | Cc1cc(C)c2c(c1)N(S(=O)(=O)c1c[nH]c(C(=O)O)c1)CCC2 | 33 | -3.71
37 | Cc1noc(C)c1CCCNC(=O)c1ccc(N2CC[C@H](N(C)C)C2)nc1 | -10 | 1.28
38 | Cc1c(-c2cc(C(=O)N3[C@@H]4CC[C@H]3CN(C)C(=O)C4)no2)cnn1C | -7 | 0.65
39 | O=C(O)C1(n2cnc3ccccc32)CCN(C/C=C/c2ccco2)CC1 | -14 | 1.37
40 | O=C(Nc1ccc(N2CCOCC2)cc1)c1ccc2nsnc2c1 | -11 | 1.02
41 | Cc1nnc(NC(=O)c2cc(=O)c(OCc3ccc(F)cc3)c[nH]2)s1 | 11 | -1.47
42 | C[C@@H](c1ccccn1)N(C)Cc1cnc(C2CCCCC2)s1 | -3 | 0.25

Row | Structure (SMILES) | % Inhibition [%] | Z score
43 | C[C@H]1CCCCN1C(=O)c1ccc(NC2CCOCC2)cc1 | -9 | 1.37
44 | CC1CCCN(C(=O)CC2CC3CCC2C3)C1 (stereo not drawn) | -12 | 1.32
45 | Cc1ccc(-c2ccc(=O)[nH]n2)cc1S(=O)(=O)NC1CCCCC1 | -34 | 2.99
46 | CN(Cc1cscn1)S(=O)(=O)Cc1ccc(Cl)cc1F | -6 | 1.13
47 | CO[C@H]1COCC[C@@H]1Nc1ccnc2ccc(C)cc12 | -12 | 1.92
48 | CCc1nc2nnc3c(=O)n(-c4ccc(C)c(C)c4)ccc3n2n1 | -15 | 2.09
49 | CCOCCc1nc(C)n(-c2cc(S(N)(=O)=O)ccc2F)n1 | -13 | 1.18
50 | COc1ncc(NC(=O)Nc2ccccc2OC)cn1 | 0 | -0.05
51 | COCCN(Cc1ccncc1Cl)C(C)(C)CO | -4 | 0.47
52 | Cc1cc(C)n(-c2nnc(C)n2NC(=O)c2ccccc2Cl)n1 | -16 | 2.22
53 | Cc1cc(CN(C)C(=O)c2ccc(-c3nc(C)c4c(n3)CCCC4)cc2)no1 | -2 | 0.38
54 | COc1ccc(S(=O)(=O)Nc2c(C)cc(C)cc2C)cc1N(C)S(C)(=O)=O | -9 | 1.49
55 | CCNC(=NCC(CC(C)O)c1ccccc1)N1CCOCC1 (stereo not drawn) | -3 | 0.29
56 | Cc1ncc(C(=O)N2CCC[C@@]3(CCC(=O)N(CCc4ccccn4)C3)C2)cn1 | -9 | 1.57
57 | COc1ccc(C2=NN(c3ccccc3)[C@@H]3C(=O)N(c4cccc(Cl)c4)C(=O)[C@H]23)cc1 | -2 | 0.46
58 | NC(=O)N1C[C@@H]2CCC[C@]2(C(F)(F)F)C1 | 2 | -0.42
59 | COCCn1cncc1CN1CCN(c2ccccc2F)CC1 | -9 | 1.07
60 | Cc1cc(=O)n(CCN2CCOCC2)c(N2CCCCC2)n1 | -14 | 1.4
61 | Cc1nnc(N2CCN(C(=O)c3ccco3)CC2)c(C#N)c1C | -19 | 1.71
62 | O=C(CCC(=O)N(Cc1cccc(O)c1)CC1CC1)c1ccccc1 | -1 | 0.19
63 | COc1ccc(-c2cccc(C(=O)NC3CC3)c2)cc1F | -20 | 2.95

Row | Structure (SMILES) | % Inhibition [%] | Z score
64 | Cc1n[nH]c(C)c1NC(=O)c1cc(F)c[nH]1 | 1 | -0.15
65 | COc1ccc(C)cc1S(=O)(=O)NC(C)(C)C | -2 | 0.46
66 | CC(C)(C)OC(=O)N1CC(OC(=O)CC2(CS(C)(=O)=O)CC2)C1 | -13 | 1.78
67 | Cc1ccc(C(=O)NCCOc2ccc3c(c2)OCO3)s1 | -7 | 1.42
68 | CCn1nc(C(F)F)cc1-c1ccco1 | -1 | 0.13
69 | Cn1c(C(=O)NCCCN2CCOCC2)cc2c1CCN(Cc1ccccc1)C2 | -8 | 1.31
70 | Cc1nc(N2CCCCC2)c2sc(=S)n(Cc3ccccc3)c2n1 | -6 | 1.2
71 | C[C@@]1(C(=O)NC2CCCCCCC2)CCC(=O)N1Cc1cccs1 | 12 | -1.54
72 | CC(C)CN(CCC(=O)O)C(=O)c1ccccc1 | -12 | 1.12
73 | Cn1c(=O)[nH]c2ncc(-c3cccc(C(=O)NCCCc4c[nH]c5ccccc45)c3)cc21 | -12 | 1.57
74 | CCn1nccc1[C@H]1OCC[C@@H]1CNC(=O)N[C@H]1Cc2ccccc2[C@H]1C | -14 | 1.28
75 | CNC(=O)[C@@H]1CC[C@](C)(c2ncnn2C)C1(C)C | -11 | 2.11
76 | O=C(Nc1cnc(Oc2ccccc2)nc1)C(c1ccccc1)c1ccccc1 | 5 | -0.91
77 | CC1(C)CC(NC2CCOC2=O)C(C)(C)O1 (stereo not drawn) | -10 | 1.23
78 | CCOC(=O)N1CCN(C(=O)Cn2ccc3c(OC)cccc3c2=O)CC1 | -15 | 2.79
79 | Cc1ccc(NC(=O)C(=O)N2CCCN(Cc3ccccc3C)CC2)cn1 | -11 | 1.19
80 | CC(C)(C)c1nnc(CS(=O)(=O)Cc2ccccc2F)o1 | -12 | 1.77
81 | Cc1cc(C(=O)N2CCC[C@H]2c2nnc3ccccn23)c(C)s1 | 6 | -0.72
82 | CC(C)c1noc(N(CCO)C2CC2)n1 | -5 | 0.74
83 | CC(C)Oc1ccc(NC(=O)OCC(F)(F)F)cc1 | -7 | 1.17
84 | CC(C)c1nc(C2CCN(C(=O)[C@H]3C[C@@H]3C(F)F)CC2)no1 | -14 | 1.86
